Experimental data taken from the supplement of paper PMC3334620.
In all, about 33,000 sequences were measured (“E-score (-0.5 to 0.5)”: median about -0.053, highest 2% from about 0.37 on). This is one part of the list.

Molecular target: Hap1 (UniProt P0CE41)
Test: PBM E-score (8-mer binding enrichment) (E-score (-0.5 to 0.5)); higher = stronger / more preferred TF binding; most listed sequences are background and not binding sites
Settings: protein concentration: 200 nM; construct: GST-DNA-binding domain
Procedure, shortened: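 Detection of bound protein used fluorescent anti-GST, with scans normalised by masliner. The proteins were GST-tagged yeast transcription factors applied at about 100-200 nM to universal all-10-mer Agilent arrays made double-stranded by primer extension. Each ungapped eight-base word, pooled with its reverse complement, was scored with an E-score from the Universal PBM Analysis Suite.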

Chain of UniProt P0CE41 (P0CE41 whole entry): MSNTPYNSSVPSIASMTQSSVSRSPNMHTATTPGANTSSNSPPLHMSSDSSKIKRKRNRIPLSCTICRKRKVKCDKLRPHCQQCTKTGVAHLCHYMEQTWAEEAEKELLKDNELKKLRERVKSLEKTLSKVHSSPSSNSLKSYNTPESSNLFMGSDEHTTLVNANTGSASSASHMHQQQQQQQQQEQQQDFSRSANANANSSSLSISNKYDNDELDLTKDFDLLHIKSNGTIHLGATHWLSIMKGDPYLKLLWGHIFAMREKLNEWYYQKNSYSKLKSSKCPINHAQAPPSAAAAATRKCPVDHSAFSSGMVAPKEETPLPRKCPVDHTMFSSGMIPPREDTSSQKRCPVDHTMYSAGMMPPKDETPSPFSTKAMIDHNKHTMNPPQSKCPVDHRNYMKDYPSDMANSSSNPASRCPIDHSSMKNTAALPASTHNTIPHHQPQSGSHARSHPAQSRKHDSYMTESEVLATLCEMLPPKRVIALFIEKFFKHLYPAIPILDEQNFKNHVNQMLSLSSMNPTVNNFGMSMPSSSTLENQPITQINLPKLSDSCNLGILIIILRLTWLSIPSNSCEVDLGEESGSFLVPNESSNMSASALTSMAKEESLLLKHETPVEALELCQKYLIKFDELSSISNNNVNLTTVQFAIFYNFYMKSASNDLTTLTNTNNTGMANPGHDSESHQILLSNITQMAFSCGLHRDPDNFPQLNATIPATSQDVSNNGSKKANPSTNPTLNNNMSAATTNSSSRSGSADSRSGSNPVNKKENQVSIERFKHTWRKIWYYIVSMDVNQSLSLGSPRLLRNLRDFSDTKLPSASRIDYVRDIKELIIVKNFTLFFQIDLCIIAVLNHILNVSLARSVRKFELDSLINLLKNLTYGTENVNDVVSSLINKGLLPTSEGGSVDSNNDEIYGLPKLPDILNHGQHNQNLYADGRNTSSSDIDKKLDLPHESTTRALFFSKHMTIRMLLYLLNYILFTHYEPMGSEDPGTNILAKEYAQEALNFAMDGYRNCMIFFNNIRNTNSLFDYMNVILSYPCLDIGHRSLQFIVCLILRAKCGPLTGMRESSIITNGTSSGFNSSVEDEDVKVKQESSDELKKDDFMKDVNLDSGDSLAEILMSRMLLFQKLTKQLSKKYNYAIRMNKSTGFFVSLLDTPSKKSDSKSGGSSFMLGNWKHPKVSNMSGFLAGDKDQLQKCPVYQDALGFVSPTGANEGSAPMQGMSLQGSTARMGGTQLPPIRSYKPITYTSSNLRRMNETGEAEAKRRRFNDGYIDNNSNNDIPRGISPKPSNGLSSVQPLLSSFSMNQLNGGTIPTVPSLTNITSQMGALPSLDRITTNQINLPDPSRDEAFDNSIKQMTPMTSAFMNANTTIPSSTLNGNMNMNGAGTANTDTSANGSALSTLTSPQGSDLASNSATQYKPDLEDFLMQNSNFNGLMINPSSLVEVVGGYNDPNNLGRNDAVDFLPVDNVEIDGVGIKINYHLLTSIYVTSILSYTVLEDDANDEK

| Sequence | PBM E-score |
| --- | --- |
| CGTTACAG | -0.0836 |
| GTTACACA | -0.229 |
| AGGGTTCA | -0.22 |
| CAAGATTC | 0.0843 |
| GAATCAGA | -0.0623 |
| AGATAGAC | -0.186 |
| ATATATGC | 0.113 |
| ACGCTTGG | -0.193 |
| CTGCTTGA | -0.294 |
| AGCTAACT | 0.0643 |
| ACAGTATC | -0.246 |
| ATGAATAA | -0.153 |
| GACGGACC | 0.285 |
| AGGGAACT | -0.024 |
| GCTATGGA | 0.0313 |
| CGCGCATC | 0.0254 |
| CAAGGGCG | -0.0882 |
| ATCTGGGA | -0.104 |
| CTCCTTCC | -0.221 |
| ACGCAGAT | 0.235 |
| ACAAAGCC | 0.0502 |
| AGGTTCGA | -0.0833 |
| AATGATTG | -0.0237 |
| ATGTCAAC | -0.165 |
| AGGATCCG | 0.179 |

| Sequence | PBM E-score |
| --- | --- |
| TAAACACA | -0.231 |
| GGGTGACA | -0.0219 |
| TCCAGCAA | -0.351 |
| AGTCGGAA | 0.25 |
| CGGTTTAG | 0.203 |
| AGCAGAAT | -0.0408 |
| TCCTGAAA | -0.0582 |
| CCGTCCAC | 0.156 |
| AGGTTATC | -0.0123 |
| AGACTGTA | -0.085 |
| ATCACGTC | -0.0726 |
| AATGAAAA | -0.0921 |
| ACTGTCGG | 0.234 |
| AATGGTGG | -0.174 |
| CTACGATA | -0.179 |
| GTGGCGCA | -0.239 |
| GCGTCGGA | 0.375 |
| ATAAAAGA | -0.129 |
| GCTCTAAA | -0.179 |
| CCTATTCC | 0.0975 |
| AGATCGGG | 0.153 |
| AATGGGCA | -0.136 |
| CGAAACCG | 0.222 |
| GCCACAGA | -0.0841 |
| CAACTATC | 0.0535 |

| Sequence | PBM E-score |
| --- | --- |
| CTGTGCAC | -0.199 |
| CAACAAGG | -0.189 |
| AAAAATGA | -0.143 |
| CTCCTGTC | -0.253 |
| ATAAGGAG | 0.126 |
| GCCGTTAC | 0.274 |
| CTCCATCA | 0.0253 |
| GGTGGCAC | -0.0146 |
| CCACCCAA | -0.106 |
| AATAACGG | 0.35 |
| GACGATGC | -0.0394 |
| TCGCGAGA | 0.135 |
| AGCTACGG | 0.0744 |
| ACGCGCCA | -0.0585 |
| AGTCAAGC | -0.178 |
| CAAAGGAC | -0.296 |
| ATTTTTAA | 0.183 |
| CGATGGTA | -0.104 |
| GCAACACC | 0.0957 |
| TCGCAAAA | -0.117 |
| GGCGATAC | 0.265 |
| TCGCTCAA | -0.00285 |
| AATGATGA | -0.0667 |
| CTGGGATA | 0.0333 |
| AGAATTTA | -0.0441 |

| Sequence | PBM E-score |
| --- | --- |
| TCGTTTAA | -0.246 |
| TCGCGACA | 0.0706 |
| CCAGGGGA | -0.0689 |
| CTTACCGA | 0.0976 |
| AAGCATGA | -0.053 |
| ATTGAGGA | -0.0213 |
| AAGGGTGG | -0.142 |
| ATATATAG | 0.11 |
| AGCCACCA | -0.292 |
| ACGTATGC | -0.0215 |
| TCTAATAA | -0.211 |
| GTTCGCTA | -0.0223 |
| ATTCATGC | 0.0263 |
| ACCCTGAA | -0.17 |
| AGCAACGA | -0.243 |
| GATACGCA | -0.135 |
| GGCAAGAA | -0.0276 |
| GGGGCACA | -0.168 |
| GAGCAGGA | -0.0327 |
| TAAGAACA | 0.0677 |
| ACACAGTG | -0.131 |
| GTTCTTTA | -0.0909 |
| GATCAACC | 0.0462 |
| GCGTTGCA | 0.0308 |
| AAAGCCTG | -0.184 |

| Sequence | PBM E-score |
| --- | --- |
| GCCTCGAA | -0.235 |
| TAGGCCTA | -0.351 |
| ATAGGGAC | -0.0258 |
| CCTAGAAG | -0.0657 |
| CTGAATTC | -0.154 |
| ACTCTGGA | -0.192 |
| AGGCTTCA | -0.0197 |
| ATGTTCCA | -0.0712 |
| ACTGGAGG | -0.0919 |
| GCTACCAA | -0.0512 |
| GCCGCGCC | -0.00918 |
| AGATAGTG | 0.0863 |
| CCAGTCTC | -0.0917 |
| CCACCACG | 0.0598 |
| GCCAAGCC | -0.0141 |
| AACCTCAC | -0.19 |
| CTAAACCA | -0.0316 |
| ATATCATC | -0.106 |
| ACGGATTA | 0.142 |
| AATGTGAA | -0.0756 |
| ACTGCGCT | -0.253 |
| TCGTACCA | -0.114 |
| CAAGGTAC | -0.288 |
| CATGTCTC | 0.131 |
| CAACGTAA | -0.247 |

| Sequence | PBM E-score |
| --- | --- |
| ATAATTGC | 0.0739 |
| CGATAAGA | 0.291 |
| CGTCTGAG | -0.029 |
| GGTGGCAA | -0.221 |
| AGAGTTGG | -0.185 |
| ATACGTAC | -0.0176 |
| ATTACAGA | -0.0355 |
| AAGAAGTG | -0.13 |
| CGTTCATC | 0.0044 |
| CTATATTA | -0.0472 |
| ATGACCCA | -0.186 |
| CCCATAGC | -0.134 |
| CCAAATTC | -0.0397 |
| CCCTGGAG | -0.335 |
| ATTGTAGG | -0.221 |
| AGGGGACA | -0.158 |
| GTCGGGAA | 0.185 |
| CCCCCGTA | -0.0945 |
| CTACTGAA | -0.129 |
| TACTTCAA | -0.0112 |
| CGGGCAAG | 0.174 |
| CCTACCTC | -0.0433 |
| GAGATAGA | -0.072 |
| TCCATGGA | 0.141 |
| GGCCTCTA | -0.34 |

| Sequence | PBM E-score |
| --- | --- |
| TAGTGTAA | -0.159 |
| TATGCCCA | -0.128 |
| AAATGCAC | 0.224 |
| ATCAAGTG | -0.0525 |
| CCATATTA | -0.192 |
| AGGAGTTC | -0.143 |
| AACTTCAG | -0.156 |
| AAGTGTAC | -0.269 |
| GGTTGAAA | 0.00999 |
| GTGATTGA | 0.00585 |
| CGCAAACC | 0.0113 |
| ACCTGCTG | -0.058 |
| AAGGAAGA | -0.121 |
| AAACCCGA | 0.439 |
| AGGCATGC | -0.214 |
| CGCGAGAC | -0.0718 |
| CCCATGTA | -0.0209 |
| AGGCAGAC | -0.163 |
| GACTTCTA | -0.185 |
| ACTCGACT | -0.297 |
| ACGGTGGA | -0.062 |
| GAGCCCAC | 0.0496 |
